The values below come from publication doi:10.1101/2022.04.07.487497 (bioRxiv, 2022).

For the test, the target named is human recombinant mesothelin (MSLN domain, residues 296-606) (human, UniProt Q13421). Kind of test: ELISA. A general note: In an ELISA, binding on a coated surface is turned into a signal by an enzyme label.

B1: amatuximab (MORAb-009) (antibody, V domains shown)
VH: not shown
VL: not shown
For the molecule B1, the binding result was “binds”.
